Screen size: about 200,000 compounds; about 10 (0.005%) were called active. The inconclusive results got no clear call from the source; some entries with a clear call stand among them for comparison. Calls come from the whole dose curve; as a rule, active = well fitted inhibition curve with a large enough effect; inconclusive = small, poorly fitted or top-dose-only effect, or effect the other way, or another doubt; inactive = no such curve, though single readings can be large or run the other way. Potencies of inconclusive entries are doubtful fits and often do not repeat.
Target: Lysosomal alpha-glucosidase (Homo sapiens) (UniProt P10253)
Experiment: qHTS Assay for Inhibitors of Human alpha-Glucosidase as a Potential Chaperone Treatment of Pompe Disease;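 for activity change, negative = inhibition: plate controls were uninhibited enzyme wells for no effect and no-enzyme background for full effect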
Conditions: purified human GAA, 4-MU-alpha-glucoside fluorescence; activity change, negative = inhibition: at 76.9 µM (top of the series) unless noted
Source text: NIH Chemical Genomics Center [NCGC] NIH Molecular Libraries Probe Production centers Network [MLPCN] MLPCN Grant: 1R03MH084841-01 Assay Submitter (PI): Wei Zheng NCGC Assay Overview: Alpha-glucosidase is responsible for hydrolysis of terminal, non-reducing 1,4-linked alpha-D-glucose residues with release of alpha-D-glucose. It is a lysosomal hydrolase that is required for the degradation of a small percentage (1-3%) of cellular glycogen in human. Deficiency of this enzyme results in glycogen-storage disease type II (GSDII), also referred to as Pompe disease, an autosomal recessive disorder. Structurally normal glycogen is accumulated in lysosomes and cytoplasm in affected patients, primarily in muscle tissues. Excessive glycogen storage within lysosomes may interrupt normal functioning of other organelles and leads to cellular injury. In turn, this leads to enlargement and dysfunction of the entire organ involved (eg, cardiomyopathy and muscle weakness). It has reported that the improper folding and trafficking of alpha-glucosidase resulting from the genetic mutations may account for a significant number of Pompe patients. […] We optimized this alpha-glucosidase assay in 1536-well plate format for identifying the novel small molecule inhibitors with the structures other than the sugar analogs in order to develop the new pharmacological chaperones.
NCGC Assay Protocol Summary: This is a fluorogenic enzyme assay with 4-methylumbelliferyl-alpha-D-[…] as the substrate and human alpha-glucosidase as the enzyme preparation. Upon the hydrolysis of this fluorogenic substrate, the resulting product, 1. 4-methyllumbelliferone, can be excited at 365 nm and emits at 440 nm which can be detected by a standard fluorescence plate reader. Data were normalized to the controls for basal activity (without enzyme) and 100% activity (with enzyme). In the AC50 values were determined from concentration-response data modeled with the standard Hill equation. Assay buffer: 50 mM citric acid (titrated with potassium phosphate to pH 5.0), 0.005% Tween-20, pH 5.0. (pH 5.0 is an optimal condition for this enzyme assay) 1536-well assay protocol for the human alpha-glucosidase: (1) Add 2 ul/well of enzyme (4 nM final) (2) Add 23 nL compounds in DMSO solution. The final titration was 0.7 nM to 77 uM. (3) Add 1 ul of substrate (400 uM final) (4) Incubate at room temperature for 20 min. (5) Add 2 ul stop solution (1M NaOH and 1M Glycine mixture, pH 10) (6) Detect the assay plate in a ViewLux plate reader (PerkinElmer) with Ex=365 nm and Em=440nm. Keywords: Alpha-glucosidase, Pompe Disease, pharmacological chaperone, chaperone therapy, high throughput screening, alpha-glucosidase inhibitor, MLSMR, MLSCN, NIH Roadmap, qHTS and NCGC
Potency is the fitted concentration of half-maximal effect; tags give direction and shape of the fitted curve.

Potency, inconclusive:
O=C(NC1(C(F)(F)F)NC(=O)N(Cc2cccnc2)C1=O)c1ccccc1Cl (configuration not stated) 0.224 µM [inhibitor, full curve, poor fit]
CCNc1ccc(N=Nc2c(C)n(C)n(-c3ccccc3)c2=O)cc1 31.6 µM [inhibitor, single point]
CCOCCCNC(=O)/C(C#N)=C/c1ccc(-c2ccc(S(=O)(=O)N3CCOCC3)cc2)o1 39.8 µM [inhibitor, partial curve]
Clc1ccc(-c2cc3ccccc3nc2N2CCOCC2)cc1 39.8 µM [inhibitor, partial curve]
O=C(CCN1CCC(c2ccccc2)C1)c1ccc2c(c1)OCCO2 (configuration not stated) 50.1 µM [inhibitor, single point]
O=C(Nc1cccc(S(=O)(=O)c2cccc(NC(=O)C3CC3)c2)c1)C1CC1 22.4 µM [inhibitor, partial curve, poor fit]
C=CCn1c(N)c(S(=O)(=O)c2cccs2)c2nc3ccccc3nc21 35.5 µM [activator, partial curve]
CN(C)S(=O)(=O)c1cc(NC(=O)COC(=O)CCSc2ccc(Cl)cc2)ccc1Cl 39.8 µM [inhibitor, single point]
O=C(NC(=O)c1ccccc1)NC1(C(F)(F)F)OCCO1 56.2 µM [inhibitor, single point]
O=C(CCSCCC(=O)Nc1ccccc1F)Nc1ccccc1F 2.51 µM [inhibitor, partial curve, poor fit]
CCCC(=O)Nc1cccc(-c2nc3ccccc3c(=O)o2)c1 31.6 µM [activator, partial curve, poor fit]
COc1cccc(OC)c1OCCNC(C)(C)C 39.8 µM [inhibitor, single point]
CC(=O)c1cc2c(s1)-c1cc(F)ccc1OC2 50.1 µM [activator, single point]
Cc1ccc(C2=NC(C(F)(F)F)(C(F)(F)F)c3c(n(-c4ccc(F)cc4)c(=O)[nH]c3=O)N2)cc1 44.7 µM [inhibitor, single point]
CN1CC2(Cc3c1ccc1ccccc31)C(=O)OC(C)(C)OC2=O 35.5 µM [activator, partial curve]
CC(C)(C)c1ccc(C(O)CCCN2CCC(C(O)(c3ccccc3)c3ccccc3)CC2)cc1 (configuration not stated) 56.2 µM [inhibitor, single point]
O=C(CN1C(=O)c2ccccc2S1(=O)=O)Nc1ccc(S(=O)(=O)N2CCCCCC2)cc1 35.5 µM [inhibitor, partial curve, poor fit]
Cc1ccc2nc(SCC(=O)c3ccc(O)cc3O)[nH]c2c1 39.8 µM [inhibitor, partial curve]
CCn1c(CCNC(=O)c2cccs2)nnc1SCC(=O)Nc1ccc(Cl)cc1 35.5 µM [inhibitor, partial curve]
CCCCNC(=O)c1ccc(N2CCC3(CC2)OCCO3)c([N+](=O)[O-])c1 39.8 µM [inhibitor, single point]
N#Cc1cc(-c2ccccc2)cn(Cc2c(Cl)cccc2Cl)c1=O 31.6 µM [activator, single point]
CN1/C(=C\C(=O)CSc2nnc(N)s2)C(C)(C)c2ccccc21 2.51 µM [inhibitor, partial curve]
O=C(Cc1csc(-c2ccccc2)n1)NCc1ccc(F)cc1 12.6 µM [inhibitor, single point]
O=C(N/N=C1\CCCc2ccccc21)C(O)c1ccccc1 (configuration not stated) 11.2 µM [inhibitor, single point]
Cc1cccn2c(=O)c(/C=C(\C#N)C(=O)NC3CCS(=O)(=O)C3)c(N3CCC(C)CC3)nc12 (configuration not stated) 6.31 µM [activator, partial curve]

Activity change, negative = inhibition, inactive:
FC(F)(F)c1cccc(NC(=S)NNC(=S)Nc2cccc(C(F)(F)F)c2)c1 -10.3%
CC(=O)Nc1cnc2ccccc2n1 -3.33%
COc1cc(C2Nc3ccc4ncccc4c3C3=C2C(=O)CC(C)(C)C3)cc(OC)c1O (configuration not stated) 13.9%
Cc1ccc(C2CCN(C(=S)Nc3cccc(Cl)c3)C2)cc1 (configuration not stated) -0.289%
COC(=O)C(N)Cc1ccc(O)c(O)c1 (configuration not stated) -2.57%
Oc1ccc(-c2nc3ncccn3c2Nc2ccc3c(c2)OCCO3)cc1 -6.86%

Activity change, negative = inhibition, inconclusive:
COc1ccc2c(c1)C(C)=CC(C)(C)N2S(=O)(=O)c1ccc(C)cc1 7.99% [activator]
Cc1ccc(CNC(=O)C2CCN(S(=O)(=O)c3ccc4c(c3)OCCCO4)CC2)cc1 -15.8% [inhibitor]
COc1ccc(OCC(=O)Nc2cccc(NC(=O)c3ccco3)c2)cc1 8.17% [activator]
Cc1nc(SCC(=O)Nn2c(-c3ccccc3)nc3ccccc3c2=O)n[nH]1 -15.3% [inhibitor]
CCN(CC)CCOC(=O)c1ccc(NC(=O)c2ccc(Cl)c(S(=O)(=O)N3CCCCCC3)c2)cc1 -16.1% [inhibitor]
CCOc1cc(C(=O)Nc2ccc3c(c2)OCO3)ccc1OC(F)F -20.1% [inhibitor]
Cc1cc(C)n2c(SC/C(O)=C(\C#N)c3nc4ccccc4[nH]3)nnc2n1 -17% [inhibitor]
COc1cccc(CN2CCNC(=O)C2CC(=O)N(C)Cc2cnccn2)c1OC (configuration not stated) -21.2% [inhibitor]
O=C(N1CCC(O)(c2cccnc2)CC1)C12CC3CC(CC(C3)C1)C2 -15.1% [inhibitor]
COc1ccc(-c2cc(C(=O)Nc3c(Cl)cc(Cl)cc3Cl)c3ccccc3n2)cc1OC 24.3% [activator]
O=C1CS/C(=N/N=C/c2ccccc2)N1Cc1ccco1 -18% [inhibitor]

From PubChem BioAssay AID1466 (National Center for Advancing Translational Sciences (NCATS), 2008)
